{"source": "paper PMC9098178", "about": "“SAR of Novel 3-Arylisoquinolinones: meta-Substitution on the Aryl Ring Dramatically Enhances Antiproliferative Activity through Binding to Microtubules” (Journal of Medicinal Chemistry, 2022)", "key": {"HepG2 cells": {"tested_on": "HepG2 cells", "assay": "Cell cycle analysis by flow cytometry"}, "SNU423 cells": {"tested_on": "SNU423 cells", "assay": "Annexin V/PI apoptosis assay", "format": "cell-based, human", "details": "0.5 and 1 μM, 24 h", "experimental": "SNU423 (2 × 10^5) cells were seeded into 6 cm dishes and incubated overnight. The culture medium was then changed with a fresh one (to get rid of any floating, potentially dead cells) followed by 24 h treatment with 4 (0.5, 1 μM). Floating and attached cells were then collected, washed with cold PBS, and washed with Annexin V binding buffer (ABB; BD Pharmingen, Cat# 556454). Next, the cell pellets were incubated with 2% (v/v) APC-conjugated Annexin V (prepared in ABB; BD Pharmingen, Cat# 550474) for 10 min at RT in the dark. Following washing with ABB, the cell pellets were resuspended in 300 μL of 0.5 μg/mL PI (prepared in ABB), kept on ice, and protected from light. Finally, the cells were promptly analyzed with flow cytometry, where the fluorescence data were collected from 10 000 single cells following gating (see Figure S27) and plotted onto quadrant graphs to determine the percentages of different cell populations. The bottom left and top left quadrants indicate live (Annexin Vl^ow/PI^low) and necrotic (Annexin Vl^ow/PI^high) cells, respectively. Further, the bottom right and top right quadrants represent early apoptotic (Annexin Vl^high/PI^low) and late apoptotic/necrotic (Annexin Vl^high/PI^high) cells, respectively."}, "A549": {"tested_on": "A549", "assay": "SRB antiproliferative assay, A549", "format": "cell-based", "details": "Homo sapiens", "experimental": "In light of this substantial change in activity between the meta and para compounds, a more comprehensive analysis of the antiproliferative activity was performed for the meta-/para-3-arylisoquinolinone pairs 2 and 3, 4, and 5, as well as 6. A panel of breast (MDA-MB-231), liver (HepG2, SNU423), lung (A549), and colon (HCT116) cancer cell lines were treated with the five 3-arylisoquinolinone analogs for 96 h followed by the SRB assay. The dose–response curves (including those for MCF-7) are presented in Figure S22, and their relevant IC50 values are listed in Table 1. […] The differential activity between meta- and para-3-arylisoquinolinones was reproduced in the National Cancer Institute (NCI) one-dose screen using a panel of 59 cancer cell lines (Figure S23).\nAll cell lines used in the study were human-derived and purchased from ATCC (Manassas, USA). […]\nScreening of the antiproliferative activity of 3-arylisoquinolinones was performed using the SRB assay as previously described.[56] […] Finally, the cellular protein-bound SRB was thoroughly dissolved in 10 mM Tris base, and the OD values were read at 510 nm using a plate reader (μQuant Microplate Spectrophotometer, Biotek, U.K.) coupled with Gen5 software (BioTek, U.K.). […] Cell growth was calculated using the following formula: cell growth (%) = (ODtest/ODcontrol) × 100."}}, "note": "Read-outs that look alike come from different tables or passages of the source.", "data": [{"compound": "O=c1[nH]c(-c2cccc(F)c2)cc2cc(F)ccc12", "note": "[compound 4, 6-Fluoro-3-(3-fluorophenyl)isoquinolin-1(2H)-one]", "values": [{"measurement": "sub-G0/G1 cell population", "setting": "HepG2 cells; 2 μM and 5 μM, 24 h, compared to control", "value": "significant sub-G0/G1 cell population"}, {"measurement": "cells in G0/G1 phase", "setting": "HepG2 cells; 5 μM, 24 h treatment", "value": "11.7 ± 2.9", "unit": "%"}, {"measurement": "cells in G2/M phase", "setting": "HepG2 cells; 5 μM, 24 h treatment", "value": "62.2 ± 6.3", "unit": "%"}, {"measurement": "cells in S phase", "setting": "HepG2 cells; 5 μM, 24 h treatment", "value": "12.4 ± 2.2", "unit": "%"}, {"measurement": "early apoptotic cells versus control", "setting": "SNU423 cells", "value": "significant increase"}, {"measurement": "late apoptotic cells versus control", "setting": "SNU423 cells", "value": "significant increase"}, {"measurement": "IC50", "setting": "A549; 24 h +drug/72 h –drug treatment, read-out: mean IC50 ± SEM, A549", "value": "440 ± 80", "unit": "nM"}, {"measurement": "IC50", "setting": "A549; 96 h treatment, mean ± SEM, read-out: IC50 A549", "value": "270 ± 60", "unit": "nM"}]}]}
